# Measured values: PMC12820563
# The other results are listed elsewhere or left out. The list includes weakly bound sequences.
# Biological target: T1, MBP-FoxP3dN (UniProt Q99JB6)
# T1 sequence: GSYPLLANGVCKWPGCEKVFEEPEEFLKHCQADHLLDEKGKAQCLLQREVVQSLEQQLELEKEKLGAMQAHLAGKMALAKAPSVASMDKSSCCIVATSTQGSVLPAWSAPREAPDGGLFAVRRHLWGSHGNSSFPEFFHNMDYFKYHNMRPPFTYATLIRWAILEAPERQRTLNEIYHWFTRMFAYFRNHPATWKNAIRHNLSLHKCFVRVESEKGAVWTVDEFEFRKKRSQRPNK
# Experiment: PD-seq (MBP pull-down with sequencing)
# Details: 20 mM Tris-HCl pH 7.5, 100 mM NaCl, 1.5 mM MgCl2, 0.4 uM protein, 0.1 uM dsDNA library, 30 min, room temperature, amylose pull-down; high values mean tight binding; double strand, one strand shown
row,Sequence,binding signal (RPM ratio (pull-down/input))
1,GATGATTGTTCTCCCAGCTGATGAATTACTCGACTCGAGTAAACAAATTTTCCTAATCTTTCTGTTCAAGCGCCATCTAC,0.292
2,GATGATTGTTCTCCCAGCTGATGAATTGGAGAAGTCGAGTAAACAAATTTTCCTAATCTTTCTGTTCAAGCGCCATCTAC,0.175
3,GATGATTGTTCTCCCAGCTGATGAATTAGCATAGTCGAGTAAACAAATTTTCCTAATCTTTCTGTTCAAGCGCCATCTAC,0.596
4,GATGATTGTTCTCCCAGCTGATGAATTTACTGGATCGAGTAAACAAATTTTCCTAATCTTTCTGTTCAAGCGCCATCTAC,0.332
5,GATGATTGTTCTCCCAGCTGATGAATTATTCTTGTCGAGTAAACAAATTTTCCTAATCTTTCTGTTCAAGCGCCATCTAC,0.299
6,GATGATTGTTCTCCCAGCTGATGAATTGGTTACTTCGAGTAAACAAATTTTCCTAATCTTTCTGTTCAAGCGCCATCTAC,0.72
7,GATGATTGTTCTCCCAGCTGATGAATTCGTGCCGTCGAGTAAACAAATTTTCCTAATCTTTCTGTTCAAGCGCCATCTAC,0.671
8,GATGATTGTTCTCCCAGCTGATGAATTTCGCATTTCGAGTAAACAAATTTTCCTAATCTTTCTGTTCAAGCGCCATCTAC,6.94
9,GATGATTGTTCTCCCAGCTGATGAATTCATGCATTCGAGTAAACAAATTTTCCTAATCTTTCTGTTCAAGCGCCATCTAC,5.77
10,GATGATTGTTCTCCCAGCTGATGAATTGTTGGACTCGAGTAAACAAATTTTCCTAATCTTTCTGTTCAAGCGCCATCTAC,0.611
11,GATGATTGTTCTCCCAGCTGATGAATTGCCCATGTCGAGTAAACAAATTTTCCTAATCTTTCTGTTCAAGCGCCATCTAC,0.577
12,GATGATTGTTCTCCCAGCTGATGAATTACAGCAATCGAGTAAACAAATTTTCCTAATCTTTCTGTTCAAGCGCCATCTAC,1.85
13,GATGATTGTTCTCCCAGCTGATGAATTCATCGTTTCGAGTAAACAAATTTTCCTAATCTTTCTGTTCAAGCGCCATCTAC,0.96
14,GATGATTGTTCTCCCAGCTGATGAATTCGCTGGCTCGAGTAAACAAATTTTCCTAATCTTTCTGTTCAAGCGCCATCTAC,0.441
15,GATGATTGTTCTCCCAGCTGATGAATTCGATAGATCGAGTAAACAAATTTTCCTAATCTTTCTGTTCAAGCGCCATCTAC,0.348
16,GATGATTGTTCTCCCAGCTGATGAATTGCTGGATTCGAGTAAACAAATTTTCCTAATCTTTCTGTTCAAGCGCCATCTAC,0.456

row,Sequence,binding signal (RPM ratio (pull-down/input))
1,GATGATTGTTCTCCCAGCTGATGAATTTCCGTTATCGAGTAAACAAATTTTCCTAATCTTTCTGTTCAAGCGCCATCTAC,0.615
2,GATGATTGTTCTCCCAGCTGATGAATTTGACTTCTCGAGTAAACAAATTTTCCTAATCTTTCTGTTCAAGCGCCATCTAC,0.65
3,GATGATTGTTCTCCCAGCTGATGAATTTCGTTGATCGAGTAAACAAATTTTCCTAATCTTTCTGTTCAAGCGCCATCTAC,1.72
4,GATGATTGTTCTCCCAGCTGATGAATTTCCGACATCGAGTAAACAAATTTTCCTAATCTTTCTGTTCAAGCGCCATCTAC,0.414
5,GATGATTGTTCTCCCAGCTGATGAATTCGACAGATCGAGTAAACAAATTTTCCTAATCTTTCTGTTCAAGCGCCATCTAC,0.181
6,GATGATTGTTCTCCCAGCTGATGAATTAAGCCAATCGAGTAAACAAATTTTCCTAATCTTTCTGTTCAAGCGCCATCTAC,0.556
7,GATGATTGTTCTCCCAGCTGATGAATTCCCGCAGTCGAGTAAACAAATTTTCCTAATCTTTCTGTTCAAGCGCCATCTAC,0.397
8,GATGATTGTTCTCCCAGCTGATGAATTCAGGCCCTCGAGTAAACAAATTTTCCTAATCTTTCTGTTCAAGCGCCATCTAC,0.381
9,GATGATTGTTCTCCCAGCTGATGAATTTTTGATATCGAGTAAACAAATTTTCCTAATCTTTCTGTTCAAGCGCCATCTAC,0.496
10,GATGATTGTTCTCCCAGCTGATGAATTGGGTTACTCGAGTAAACAAATTTTCCTAATCTTTCTGTTCAAGCGCCATCTAC,0.979
11,GATGATTGTTCTCCCAGCTGATGAATTAGAATTCTCGAGTAAACAAATTTTCCTAATCTTTCTGTTCAAGCGCCATCTAC,0.556
12,GATGATTGTTCTCCCAGCTGATGAATTGTACGATTCGAGTAAACAAATTTTCCTAATCTTTCTGTTCAAGCGCCATCTAC,0.373
13,GATGATTGTTCTCCCAGCTGATGAATTGCTCGGCTCGAGTAAACAAATTTTCCTAATCTTTCTGTTCAAGCGCCATCTAC,0.337
14,GATGATTGTTCTCCCAGCTGATGAATTGGATCGTTCGAGTAAACAAATTTTCCTAATCTTTCTGTTCAAGCGCCATCTAC,0.402
15,GATGATTGTTCTCCCAGCTGATGAATTAATGTTCTCGAGTAAACAAATTTTCCTAATCTTTCTGTTCAAGCGCCATCTAC,1.56
